In PubChem BioAssay AID651820 (National Center for Advancing Translational Sciences (NCATS), 2012):
The campaign covered roughly 340,000 compounds. About 12,000 (3.5%) were called active. The inconclusive results got no clear call from the source; some entries with a clear call stand among them for comparison. Calls come from the whole dose curve; as a rule, active = well fitted inhibition curve with a large enough effect; inconclusive = small, poorly fitted or top-dose-only effect, or another doubt; inactive = no such curve, though single readings can be large or run the other way. Potencies of inconclusive entries are left out as doubtful fits.

Assay: qHTS Assay for Inhibitors of Hepatitis C Virus (HCV)
Conditions: Huh7.5.1 HCVcc-Cre (HCVcc is cell-culture hepatitis C virus) infection, luciferase reporter, 44 h; series mostly up to 41.8 µM
In short: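 Whole-lifecycle infectious HCVcc-Cre system; cells 1,000/well, compound then virus (~0.5 moi) added 4 h after plating, 44 h culture. Luciferase read 15 sec following 15 min substrate incubation, room temp.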
Potency is the fitted concentration of half-maximal effect; tags give direction and shape of the fitted curve.

Q: For COc1ccc(C(C(=O)NCC2CCCO2)N(C(=O)CNC(=O)c2ccco2)c2ccc(C)c(C)c2)cc1OC (configuration not stated), which Potency is on record?
A: inconclusive [inhibitor, single point]

Q: Which Potency does the source give for CCN1CCSc2ccc(C(=O)NCc3ccccc3F)cc21 here?
A: inconclusive [inhibitor, partial curve]

Q: For COc1ccc(OC)c(Nc2nc(N)nc(-c3cc4ccccc4o3)n2)c1, which Potency is on record?
A: inconclusive [inhibitor, full curve, poor fit]

Q: With COc1ccc(CNc2nc3ccccc3n2Cc2ccccc2)cc1OC as the molecule, how does the Potency read?
A: inconclusive [inhibitor, single point]

Q: With COc1ccc(OCCCC(=O)Nc2ncn[nH]2)cc1 as the molecule, how does the Potency read?
A: inactive

Q: With Cc1cccc(N2CCN(C(=S)Nc3ccc4nc(N5CCN(C)CC5)cc(C)c4c3)CC2C)c1 (configuration not stated) as the molecule, how does the Potency read?
A: inconclusive [inhibitor, partial curve]

Q: Which Potency does the source give for Cc1ccccc1N=Nc1c(C)[nH]n(-c2ccccc2)c1=O here?
A: inactive

Q: For CC(=O)Nc1ccc(C(=O)NCC2(N3CCCCC3)CCCCC2)cc1, which Potency is on record?
A: inconclusive [inhibitor, partial curve, poor fit]

Q: With O=C(c1ccccn1)N(Cc1ccco1)C1(C(=O)NC2CCCC2)CCCCC1 as the molecule, how does the Potency read?
A: inconclusive [inhibitor, partial curve]

Q: Which Potency does the source give for COc1ccc(N2C(=O)[C@@H]3[C@H](C2=O)[C@H](C(=O)c2ccc(OC(C)=O)cc2)N2N=CC=C[C@@H]32)cc1 here?
A: inactive

Q: For C/C(=N\NC(=O)c1cccc(Cl)c1)c1cccc(NC(=O)C(C)C)c1, which Potency is on record?
A: inconclusive [inhibitor, partial curve]

Q: Which Potency does the source give for C(=N\Nc1nc(N2CCCCCC2)nc(N2CCCCCC2)n1)/c1ccccc1 here?
A: inconclusive [inhibitor, single point]

Q: For FC(F)(F)c1cccc(-c2nc3nc(Cl)c(Cl)nc3[nH]2)c1, which Potency is on record?
A: active: 11.2 µM

Q: Which Potency does the source give for Cc1cc(N2CC(C(=O)NCc3cccs3)CC2=O)ccc1C(C)C (configuration not stated) here?
A: inconclusive [inhibitor, single point]

Q: Which Potency does the source give for O=C(N/N=C/c1cn(-c2ccccc2)nc1-c1ccc(F)cc1)c1ccc(Br)o1 here?
A: inconclusive [inhibitor, single point]

Q: Which Potency does the source give for Cc1sc2c(c1C)c(=O)n(-c1ccc(Cl)cc1)c(=O)n2Cc1cc(=O)n2ccccc2n1 here?
A: inconclusive [inhibitor, full curve, poor fit]

Q: With COc1ccccc1CC(=O)NN1C(=O)NC2(CCC(C)CC2)C1=O (configuration not stated) as the molecule, how does the Potency read?
A: inconclusive [inhibitor, single point]

Q: For COC(=O)c1ccc(OCC(=O)Nc2ccsc2C(=O)OC)cc1, which Potency is on record?
A: inconclusive [inhibitor, single point]

Q: With CNC(=O)c1nnn(-c2ccccc2)c1C(=O)NC as the molecule, how does the Potency read?
A: inconclusive [inhibitor, partial curve]

Q: With CC(=O)Nc1cccc(/C(C)=N/NC(=O)c2cccs2)c1 as the molecule, how does the Potency read?
A: inactive

Q: For CCCCOc1cc(NCc2ccccc2)c2ncn(C(C)C)c2c1, which Potency is on record?
A: active: 11.2 µM

Q: For Cc1cccc(NC(=O)C2CC3CCC2C3)c1C (configuration not stated), which Potency is on record?
A: inactive

Q: With CCc1ccccc1OCC(=O)Nc1cccc(S(=O)(=O)N2CCCC2)c1 as the molecule, how does the Potency read?
A: inconclusive [inhibitor, partial curve]

Q: For COc1ccc(CCNC(=O)NC2CCCCC2)cc1OC, which Potency is on record?
A: inactive

Q: Which Potency does the source give for O=C1CSC(c2ccc([N+](=O)[O-])cc2)N1CCN1CCCCC1 (configuration not stated) here?
A: inactive

Q: With N/C(=N\OC(=O)c1ccccc1[N+](=O)[O-])c1cccnc1 as the molecule, how does the Potency read?
A: inactive

Q: For O=C1NC(=S)SC1=Cc1ccc2c(c1)OCO2, which Potency is on record?
A: inactive

Q: With COc1cc(/C=C/[N+](=O)[O-])ccc1OC(=O)/C=C/c1ccc(F)cc1 as the molecule, how does the Potency read?
A: inconclusive [inhibitor, single point]

Q: For COc1cc(-c2noc(C)c2C#Cc2ccsc2)cc(OC)c1OC, which Potency is on record?
A: inconclusive [inhibitor, partial curve]

Q: Which Potency does the source give for CC(C)CC(=O)Nc1ccc(C(=O)Nc2cccc(O)c2)cc1 here?
A: inactive

Q: For Cc1ccc(NC(=O)CS(=O)Cc2nc(-c3ccc(C)cc3)oc2C)cc1 (configuration not stated), which Potency is on record?
A: inactive

Q: Which Potency does the source give for COc1cc(C(=O)NCC(=O)N/N=C(\C)Cc2ccccc2)cc(OC)c1OC here?
A: inactive

Q: With CC(C)Cn1c(=O)n(C)c(=O)c2[nH]cnc21 as the molecule, how does the Potency read?
A: inconclusive [inhibitor, partial curve, poor fit]

Q: Which Potency does the source give for CC1CCCC(C)N1C(=O)c1ccc(S(=O)(=O)NCc2ccco2)cc1 (configuration not stated) here?
A: inactive

Q: With O=C(Nc1ccc2c(c1)OCO2)c1ccc(N2CCCC2)c([N+](=O)[O-])c1 as the molecule, how does the Potency read?
A: inconclusive [inhibitor, full curve]

Q: For CCOc1ccc(NC(=O)NC2(C(=O)NCc3ccco3)CCCCC2)cc1, which Potency is on record?
A: inconclusive [inhibitor, partial curve, poor fit]

Q: Which Potency does the source give for Cc1cc(N/N=C/c2ccccc2[N+](=O)[O-])nc(-n2nc(C)cc2C)n1 here?
A: active: 2.51 µM

Q: With CC1CCCN(S(=O)(=O)c2ccc(NC(=O)c3cccc(-n4cnnn4)c3)cc2)C1 (configuration not stated) as the molecule, how does the Potency read?
A: inconclusive [inhibitor, single point]

Q: With COC(=O)c1c(NC(=O)COc2ncnc3ccccc23)sc(C)c1C as the molecule, how does the Potency read?
A: inconclusive [inhibitor, single point]

Q: With Cc1ccc(C(=O)NC(=S)NCC2CCCO2)cc1Br (configuration not stated) as the molecule, how does the Potency read?
A: inconclusive [inhibitor, full curve, poor fit]

Q: With COc1cc2c(cc1NC(=O)c1ccc3c(c1)OCO3)oc1ccccc12 as the molecule, how does the Potency read?
A: active: 14.1 µM

Q: Which Potency does the source give for COc1ccc(CCNC(=O)c2c([S-])n(-c3ccc(C)cc3)c3cccc[n+]23)cc1 here?
A: active: 11.2 µM

Q: For Cc1ccccc1Cn1ccc(NC(=O)c2nn(C)cc2[N+](=O)[O-])n1, which Potency is on record?
A: inconclusive [inhibitor, full curve]

Q: Which Potency does the source give for COCCN(CC(=O)Nc1cccc(C)c1C)C(=O)Cn1c(=O)cnc2ccccc21 here?
A: inactive

Q: With COc1cc(C2c3cc4c(cc3OC(C)(N3CCCC3)C2C)OCO4)cc(OC)c1OC (configuration not stated) as the molecule, how does the Potency read?
A: inconclusive [inhibitor, full curve]

Q: With CCOC(=O)c1nc2sc3c(c2c(=O)[nH]1)CCC(C)C3 (configuration not stated) as the molecule, how does the Potency read?
A: inactive

Q: For COc1ccccc1NS(=O)(=O)c1cc(NC(=O)c2ccc(Cl)nc2)ccc1N1CCCC1, which Potency is on record?
A: inconclusive [inhibitor, partial curve]

Q: With CN1CCN(C(c2cccc(Cl)c2)c2ccccc2Cl)CC1 (configuration not stated) as the molecule, how does the Potency read?
A: inconclusive [inhibitor, partial curve, poor fit]

Q: For O=S1(=O)N(CCN2CC=C(c3c[nH]c4cc(F)ccc34)CC2)c2cccc3c2N1CCC3, which Potency is on record?
A: inconclusive [inhibitor, partial curve, poor fit]

Q: With CC(=O)Nc1sc(C)c(C)c1C(=O)OCC(=O)NC(C)c1ccccc1 (configuration not stated) as the molecule, how does the Potency read?
A: inconclusive [inhibitor, full curve]

Q: Which Potency does the source give for CC1CCN(S(=O)(=O)c2cccc(C(=O)Nc3ccccn3)c2)CC1 here?
A: inconclusive [inhibitor, single point]

Q: With O=C(Nc1cccc(O)c1)c1cc(-c2ccccc2Cl)on1 as the molecule, how does the Potency read?
A: inactive

Q: With COc1ccc(-c2ccc(=O)n(Cc3cccc(Cl)c3)n2)cc1 as the molecule, how does the Potency read?
A: inconclusive [inhibitor, single point]

Q: For CCc1ccc(C2CC(=O)NC(SCC(=O)OC(C)C)=C2C#N)cc1 (configuration not stated), which Potency is on record?
A: inconclusive [inhibitor, single point]

Q: With S=C1NCCNC(=S)NCCOCCN1 as the molecule, how does the Potency read?
A: inconclusive [inhibitor, partial curve]

Q: With NC(=O)c1c(NC(=S)Nc2ccccc2)sc2c1CCCC2 as the molecule, how does the Potency read?
A: inconclusive [inhibitor, partial curve]

Q: With COC(=O)c1c(C)oc2c1cc(NS(=O)(=O)c1cccs1)c1ccccc12 as the molecule, how does the Potency read?
A: inconclusive [inhibitor, single point]

Q: Which Potency does the source give for O=C1[C@@H]2[C@@H]3C[C@@H]([C@H]4ON=C(c5ccc(Cl)cc5)[C@@H]34)[C@@H]2C(=O)N1C1CCCCC1 here?
A: inconclusive [inhibitor, single point]

Q: For CC1CN(Cc2ccccc2)C(C)CC1O (configuration not stated), which Potency is on record?
A: inactive

Q: For CCOc1ccc2oc(C(=O)Nc3ccc(N4CCOCC4)cc3)c(C)c2c1, which Potency is on record?
A: inconclusive [inhibitor, partial curve]

Q: With N=c1c(C(=O)NCCc2ccccc2)cc2c(=O)n3ccccc3nc2n1CCCN1CCOCC1 as the molecule, how does the Potency read?
A: inconclusive [inhibitor, single point]

Q: Which Potency does the source give for CC(=O)c1ccc(OCCCC(=O)Nc2cc(Cl)ccc2-n2cncn2)cc1 here?
A: inactive

Q: Which Potency does the source give for O=C(NCCc1ccccc1)C(c1cccs1)N(C(=O)c1csnn1)C1CC1 (configuration not stated) here?
A: inactive

Q: Which Potency does the source give for CC(/C=C/c1ccc(O)cc1)=N/O here?
A: inconclusive [inhibitor, single point]

Q: With Cc1ccccc1NC(=S)Nc1ccc2cn[nH]c2c1 as the molecule, how does the Potency read?
A: inactive

Q: For COc1ccc(Cn2cccc(NC(=O)Nc3ccc(F)cc3)c2=O)cc1, which Potency is on record?
A: inconclusive [inhibitor, partial curve]

Q: With COn1c(-c2ccccc2)nc2ccc(Cl)cc21 as the molecule, how does the Potency read?
A: inconclusive [inhibitor, single point]

Q: Which Potency does the source give for Cc1ccc(-c2ccc(=O)n(CC(=O)NCCN(CC(C)C)CC(C)C)n2)cc1 here?
A: inactive

Q: Which Potency does the source give for COc1cccc(/C=C/C(=O)OCC(=O)Nc2nnc(-c3ccccc3)o2)c1OC here?
A: inactive

Q: Which Potency does the source give for C/C(=C\C=C(C#N)C#N)c1cc(C#N)c(N)o1 here?
A: inactive

Q: For O=C(Nc1ccccc1F)Nc1ccccc1N1CCCCC1, which Potency is on record?
A: active: 14.1 µM

Q: For CC(C)(C)OC(=O)C[C@@H]1C/C=C\C[C@@H](CC(=O)NCCO)C(=O)N2CCC[C@H]2COC1=O, which Potency is on record?
A: inactive
